Assay results as given in publication PMC4336329 (PLoS ONE, 2015).
About 2,200 (0.71%) of roughly 310,000 compounds showed an effect of 50% or more. The effect is printed as a negative number. The list shows a part of the results.

Target: human ether-à-go-go-related gene (hERG) potassium channel (human, UniProt Q12809)
Assay: primary screen, population patch clamp on CHO cells stably expressing hERG

Chain of human ether-à-go-go-related gene (hERG) potassium channel (Q12809 whole entry, looked up): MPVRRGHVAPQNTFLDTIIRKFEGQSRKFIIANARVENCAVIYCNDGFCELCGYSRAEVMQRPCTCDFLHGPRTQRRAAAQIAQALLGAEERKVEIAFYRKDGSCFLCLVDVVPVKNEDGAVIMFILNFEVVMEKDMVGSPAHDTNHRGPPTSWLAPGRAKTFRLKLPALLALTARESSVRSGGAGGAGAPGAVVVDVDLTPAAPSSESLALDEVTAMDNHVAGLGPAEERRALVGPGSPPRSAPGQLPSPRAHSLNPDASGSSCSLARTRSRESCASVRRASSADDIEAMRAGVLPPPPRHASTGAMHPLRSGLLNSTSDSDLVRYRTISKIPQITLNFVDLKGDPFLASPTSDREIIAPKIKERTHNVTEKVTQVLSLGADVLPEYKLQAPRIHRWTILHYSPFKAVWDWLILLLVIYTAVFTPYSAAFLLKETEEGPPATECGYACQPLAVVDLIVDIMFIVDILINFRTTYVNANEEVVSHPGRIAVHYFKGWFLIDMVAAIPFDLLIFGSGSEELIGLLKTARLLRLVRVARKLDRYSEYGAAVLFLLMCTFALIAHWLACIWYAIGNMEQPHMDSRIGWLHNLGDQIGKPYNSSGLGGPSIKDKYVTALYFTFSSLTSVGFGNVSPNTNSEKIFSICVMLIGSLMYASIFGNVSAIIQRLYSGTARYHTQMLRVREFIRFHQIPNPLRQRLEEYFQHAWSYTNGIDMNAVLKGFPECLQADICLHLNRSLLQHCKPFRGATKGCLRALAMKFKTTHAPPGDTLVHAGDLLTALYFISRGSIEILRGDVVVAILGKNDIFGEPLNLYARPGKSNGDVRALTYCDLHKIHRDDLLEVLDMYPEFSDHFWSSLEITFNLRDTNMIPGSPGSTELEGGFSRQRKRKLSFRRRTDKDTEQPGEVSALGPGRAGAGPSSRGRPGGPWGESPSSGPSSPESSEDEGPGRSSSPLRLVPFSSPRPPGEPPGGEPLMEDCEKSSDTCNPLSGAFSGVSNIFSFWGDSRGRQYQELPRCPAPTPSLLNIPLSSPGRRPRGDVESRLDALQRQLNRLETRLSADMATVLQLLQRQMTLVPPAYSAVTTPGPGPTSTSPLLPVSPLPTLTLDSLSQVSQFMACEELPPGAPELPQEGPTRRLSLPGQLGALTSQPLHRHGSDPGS

SMILES | hERG current change (%, negative = inhibition) at 1uM [%]
CCOc1ccc(NC(=O)NNC(=O)c2ccc(CC)s2)cc1 | 8.15
Cc1cc(C)cc(N(C(C)C(=O)NCc2ccc3c(c2)OCO3)S(C)(=O)=O)c1 (centres unmarked) | 15.7
CC1(C)C2([N+](=O)[O-])CN3CC1([N+](=O)[O-])CN(C2)C3c1ccccn1 (centres unmarked) | 15.1
Cc1ccc2nc(-c3ccccn3)cc(C(=O)Nc3ccc(S(=O)(=O)N4CCOCC4)cc3)c2c1 | 15.8
O=C(NC1=NCCS1)c1cccc2ccccc12 | 8.28
COC(=O)CCCC(=O)Nc1c(F)c(F)c(F)c(F)c1F | 7.53
Cc1ccc(S(=O)(=O)N2CCN(C(=O)C(F)(F)F)C2c2ccc(N(C)C)cc2)cc1 (centres unmarked) | 15.1
CN1C[C@@H]2C(c3ccc(Cl)nc3)C3(c4cccnc4)CC2(C3)[C@H]1c1ccccc1 (some centres unmarked) | -13
CS(=O)(=O)c1ccc(NC(=O)C2CC(=O)N(c3ccc4c(c3)OCCO4)C2)cc1 (centres unmarked) | 15.4
Cc1cc(NC(=O)CCC(=O)N(c2cccnc2)C(C(=O)NC2CCCC2)c2ccccc2)no1 (centres unmarked) | 15.7
O=C(CC(=O)c1ccccc1O)c1ccc(F)cc1 | 7.4
O=[N+]([O-])c1ccc(NNC(=S)Nc2ccc(F)cc2)cc1 | 5.09
COc1ccc(C(CNC(=O)c2ccc(-n3cnnn3)cc2)N2CCOCC2)cc1 (centres unmarked) | -7.62
CC(CC(=O)O)CC(=O)Nc1cc([N+](=O)[O-])ccc1O (centres unmarked) | 9.09
CC(=O)NCc1ccc2[nH]c(C)cc2c1 | 21.4
CC(C)C(C(=O)NCc1ccccc1)N(CC1CCCO1)C(=O)CNS(=O)(=O)c1ccccc1 (centres unmarked) | 12.2
O=C(NC(=S)Nc1ccc(Cl)cc1)c1cncc(Br)c1 | 1.69
Cc1ccc(S(=O)(=O)NCC(=O)NCC(=O)OCc2c(F)cccc2Cl)cc1 | 5.06
C#CCOCCOCCOCCNc1nc(N2CCN(C(=O)[C@H](Cc3ccc(O)cc3)n3cc([C@@H](N)C(C)CC)nn3)CC2)nc(N2CCN(C(=O)[C@H](CCCCN)n3cc([C@@H](N)CO)nn3)CC2)n1.Cl (some centres unmarked) | 12.4
COCCN(Cc1cc2cc3c(cc2n2nnnc12)OCO3)C(=O)c1ccccc1F | -4.1
CCN(CC)CCCNCC(=O)Nc1ccc2c(c1)CCC2 | 7.47

SMILES | hERG current change (%, negative = inhibition) at 1uM [%]
CCOc1ccc(Nc2nc(NCC(=O)O)nc(N)c2[N+](=O)[O-])cc1 | 15.3
CSc1ccc(Cl)c(C(=O)OCC(=O)N2CCNC2=O)c1 | 0.583
COc1ccc(NC(=O)CSc2ccccc2)c([N+](=O)[O-])c1 | 5.46
O=C(COC(=O)c1cccc(S(=O)(=O)NCc2ccccc2)c1)c1ccc2c(c1)OCCO2 | 9.41
O=S(=O)(c1ccc(Br)s1)N1CCN(c2ncccn2)CC1 | 7.4
CCOC(=O)c1c(C)n(C)c2c(C)cc(O)c(OC(=O)CC)c12 | 9.43
COCCN(C(=O)COC(=O)C1CC1)c1c(N)n(Cc2ccccc2)c(=O)[nH]c1=O | -7.91
Cc1ccc(NC(=O)c2nc[nH]c2C(=O)NCC(=O)OC(C)(C)C)cc1 | -10.1
CNCc1ccccc1OCC(=O)Nc1ccccc1 | 10.6
COc1ccccc1NC(=O)CSc1nnc(C2CCCCC2)o1 | 4.22
CCCCCc1cc(=O)oc2c(C(CCN3CCCCC3)c3cc(OC)c(OC)c(OC)c3)c(OC)cc(OC)c12 (centres unmarked) | -10.6
CCOC(=O)c1ccc(NC(=O)c2ccc(CN3CCc4ccccc4C3)cc2)cc1 | 15.8
O=C(CCc1n[nH]c(=O)[nH]c1=O)N/N=C/c1ccco1 | 18.4
O=C1COc2ccc(C(=O)CSc3nnc(NCc4ccccc4)s3)cc2N1 | -3.95
Cc1ccsc1/C=N/Nc1nc2ccccc2s1 | -7.03
CC1(C)CC[C@]2(C(=O)O)CC[C@]3(C)C(=CCC4[C@@]5(C)CC[C@H](O)C(C)(C)C5[C@H](O)C[C@]43C)[C@@H]2C1 (some centres unmarked) | 7.52
c1ccc(-c2cc(N3CCCCC3)nc(-c3ccccc3)n2)cc1 | 11.5
COc1ccc(CCN(/C=C2\Sc3ccccc3C2=O)C(C)=O)cc1OC | 17.4
Cc1nn(-c2ccccc2)c2nc(C(Cl)(Cl)Cl)[nH]c(=O)c12 | 6.29
O=C(Cn1nc(Cc2cccnc2)c2ccccc2c1=O)NCCCN1CCCC1=O | -2.58
COc1ccc(NC(=O)CN(C)C(=O)c2cc(-c3cccs3)nn2-c2ccccc2)cc1 | 10.5

SMILES | hERG current change (%, negative = inhibition) at 1uM [%]
O=C(O)COc1ccccc1/C=N/NC(=O)CSc1nnc(SCc2ccccc2)s1 | 4.1
O=c1c2ccccc2nnn1CSc1nnc(-c2cccc(S(=O)(=O)N3CCCCC3)c2)o1 | 6.12
CC(C)CC(NC(=O)CCCNC(=O)CCC(=O)OC1O[C@H]2OC3(C)CC[C@H]4[C@H](C)CCC(C1C)C24OO3)C(=O)O (some centres unmarked) | 7.6
O=C(CSc1nc2ccccc2n1-c1ccccc1)Nc1ncc(Cl)cc1Cl | 6.36
CCOc1ccc2ccccc2c1/C=N/NC(=O)c1c(C)cc(C)[nH]c1=O | 9.98
FC(F)(F)c1ccc(Oc2ccc3cc(Br)ccc3c2)nc1 | 8.21
Cc1cc(=O)[nH]c(SCC(=O)Nc2ccc(Br)cc2)c1C#N | 5.49
Cc1cc(NC(=O)c2cccnc2)ccc1Br | 6.96
CCO/C=C1\N=C(c2ccc(F)cc2)OC1=O | 15.9
O=C(Nc1ccccc1C(=O)N1CCCC1)c1ncoc1-c1cccc(Cl)c1 | 12.9
CC(C)(C)C(=O)COC(=O)C1=NN(c2ccccc2)C(=O)CC1 | 14.6
N#CCCN(Cc1cccnc1)C(=O)Nc1cccc(Cl)c1 | -8.11
c1cncc(-c2nnc(-c3cccs3)o2)c1 | 8.95
O=C(CSc1nncs1)N1CCN(S(=O)(=O)c2ccccc2)CC1 | 2.44
Cc1cccc(-n2c3nc(=O)[nH]c(=O)c-3cc3cc([N+](=O)[O-])ccc32)c1 | 1.38
O=C(CSc1ccc2nnc(-c3cccnc3)n2n1)Nc1ccccc1C(F)(F)F | 10.2
Cc1ccc(C)c(NC(=O)COC(=O)Cc2ccsc2)c1 | 8
CCCN1CNC(=S)N(Cc2ccccc2)C1 | 11.2
CCOC(=O)COc1nc(OC)nc(N2CCOCC2)n1 | 8.45
CC12CC(c3ccccc3O1)N(C(=O)c1ccco1)C(=S)N2c1ccc(F)cc1 (centres unmarked) | 0.254
Cc1ccc(C(C(=O)NCC2CCCO2)N(C(=O)c2snc(C(N)=O)c2N)c2ccc3c(c2)OCCO3)cc1 (centres unmarked) | 15.8

SMILES | hERG current change (%, negative = inhibition) at 1uM [%]
CCOc1ccc(S(=O)(=O)N2CCN(c3ccc(OC)cc3)CC2)c2cccnc12 | 10.5
COc1ccc(C(=O)Nc2ccc(OCc3ccccc3)cc2)cc1[N+](=O)[O-] | 8.3
O=C(CNC(=S)N(Cc1ccccc1)Cc1ccccc1F)NCCc1ccccc1 | 9.52
COc1ccc(N2CC(C)Cn3c2nc2c3c(=O)[nH]c(=O)n2C)cc1 (centres unmarked) | 0.0833
Cc1cc(-c2nnc(SCC(=O)Nc3nccs3)o2)no1 | 15.2
CCn1c2ccccc2c2cc(NC(=O)COc3ccccc3OC)ccc21 | 7.83
CC(=O)n1c(C=Nc2ccc(Cl)cc2)c(O)c2ccccc21 | 4.48
CCOc1ccc(N2C(=O)CN=C2Nc2ccccc2F)cc1 | 6.28
CCN(C(=O)COC(=O)c1cc(S(=O)(=O)N2CCOCC2)c(Cl)cc1Cl)C1CCS(=O)(=O)C1 (centres unmarked) | 13.6
O=C(COC(=O)/C=C/c1ccccc1Cl)NCCc1ccc(Cl)cc1Cl | 15.3
CCOC(=O)C1(CC2CCCCO2)CCN(S(=O)(=O)c2ccc(OC)cc2)CC1 (centres unmarked) | 6.99
O=C(NCc1ccc2c(c1)OCO2)C(=O)Nc1ccccc1 | 3.48
CC(/C=N/NC(=O)c1cc(-c2cccnc2)nc2c1c(C)nn2-c1ccccc1)=C\c1ccccc1 | 0.13
COc1ccccc1C(=O)C1CCCN(Cc2cccc3nccnc23)C1 (centres unmarked) | -45
COc1ccccc1NC(=O)Nc1nc2ccc(S(N)(=O)=O)cc2s1 | 14.8
COC(=O)c1ccc(COC(=O)CNC(=O)c2cccc(OC)c2)o1 | 5.55
Cc1ccc(C(=O)Nc2cccc(NC(=O)CN3CCCCC3)c2)cc1 | -11.9
CCOC(=O)c1cc(-c2ccccc2)n(CCC(=O)N2CCN(c3ccc(OC)cc3)CC2)c1C | 5
COc1cc(CCC(=O)Nc2c(C(=O)N3CCN(c4ccccc4)CC3)oc3ccccc23)on1 | 4.13
Clc1ccccc1-c1nnc(-c2ccc3c(c2)OCO3)o1 | 3.62
